PubChem BioAssay AID1508623 (National Center for Advancing Translational Sciences (NCATS), 2021)
Out of some 48,000 compounds screened, about 450 (0.94%) were called active. Not shown: some 19% with an inconclusive outcome. The call rests on the fitted dose curve; in most records, active means well fitted inhibition curve with a large enough effect; inconclusive means small, poorly fitted or top-dose-only effect; inactive means no such curve, though single readings can be large or run the other way. Some of the results follow.

Assay: Primary qHTS for Identification of Small Molecule Inhibitors of Huntingtin Promoter Activity; further: nearly all actives have a fitted effect of over 50% in size
Conditions: HEK293 HTT promoter firefly luciferase reporter (activity 0% = vehicle and -100% = no light), 24 h; series mostly up to 57.5 µM; activity change, negative = inhibition: at the top concentration
Summary of the method: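 Luminescence was read after Dual-Glo reagent and a 10 min room-temperature incubation. Values were normalized to vehicle (0% activity) and zero RLU (-100% activity). Reporter HEK293 cells had been exposed to compounds (up to 57.5 uM final) for 24 h.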

Activity change, negative = inhibition, inactive:
CCC1CCCCN1CCCNC(=O)c1c(O)nc2cc(C)ccn2c1=O (centres undefined) -0.984%
COc1cccc(CNC(=O)Cn2c(=O)nc(-c3ccccc3F)c3cc(Cl)ccc32)c1 -4%
CC1CCN(S(=O)(=O)c2ccc3c(c2)N(CC(=O)NC(C)(C)C)C(=O)CS3)CC1 -21.2%
COc1ccc(Nc2oc(/C=C/c3cc(OC)c(OC)c(OC)c3)nc2C#N)cc1 0.263%
Cc1oc2ncnc(N3CCCCC3)c2c1C(=O)N1CCN(c2ccc(Cl)cc2)CC1 17.2%
COc1ccccc1C(=O)Nc1ccc(S(=O)(=O)Nc2nc(C)cc(C)n2)cc1 -19.7% [at 11.5 µM]
COc1ccc(S(=O)(=O)N(CC(=O)NCCc2ccccc2)c2ccc(Cl)cc2)cc1 -14.4%
COc1ccc(NC(=O)c2ccco2)cc1NC(=O)c1cc(Br)ccc1Cl -18.1%
CCOc1ccc(C(=O)c2oc3ccccc3c2NC(=O)c2cc(=O)c3ccc(C)cc3o2)cc1 2.02%
COc1ccc(-c2nc3c4ccccc4n(CC(=O)N4CCN(c5ccccc5F)CC4)c(=O)n3n2)cc1 11.9%
CCCCN(CC)CCNC(=O)c1nn(C)c2c1CS(=O)(=O)c1ccccc1-2 5.5%
CCc1ccc(NC(=O)CCCc2nnc3n(C(C)CC)c(=O)c4sccc4n23)cc1 (centres undefined) -20.1%
Cc1ccc(NC(=O)CSc2nnc(NC(=O)NC3CCCCC3)s2)cc1 23.8%
COC(=O)c1ccccc1NC(=O)c1sc2nc(C)cc(C)c2c1NC(=O)c1ccccc1Cl -13.9%
Cc1cc(/C=C(\C#N)C(=O)Nc2ccccc2)c(C)n1-c1ccc(F)cc1 -3.1%
COc1ccc(NC(=O)c2cc(C(C)=O)n3ccccc23)cc1Cl 8.61%
COc1ccc2c(CNCc3cccs3)c(C(=O)O)n(Cc3cccc(F)c3)c2c1 -16.3%
CC(CNC(=O)c1ccc2nc(CCc3ccccc3)oc2c1)c1ccccc1 (centres undefined) -2.24%
COc1ccc(NC(=O)c2ncoc2-c2ccco2)cc1Cl -20.5%
COc1ccc(CNC(=O)c2cc(C3CC3)nc3c2c(C)nn3-c2cccc(Cl)c2C)cc1 1.96%
Cc1cccc(C(=O)Nc2ccc3nc(SCC(=O)N4CCc5ccccc54)sc3c2)c1 -13.6%
COc1ccc(OC)c(-c2nnc3n(CCc4ccccc4)c(=O)c4ccccc4n23)c1 42.5%
COc1ccc(CNC(=O)Cn2ccc3cc(S(=O)(=O)N4CCCC4)ccc32)c(OC)c1 -6.58%
CCn1c(=O)n(-c2ccc3c(c2)OCO3)c2nc(-c3cc(OC)ccc3OC)nc(C(N)=O)c21 -2.4%
CCOc1ccc2oc(=O)cc(CN3CCN(C(=O)c4cccc(Cl)c4)CC3)c2c1 -5.79%
Clc1ccc2ncc(-c3cccc(NC4CNC4)n3)n2c1 -24.6%
CCN(CC)C(=O)Cn1c(=O)n(CCCCCC(=O)Nc2ccccc2)c(=O)c2sccc21 -0.415%
NC(=O)C(=O)N/N=C/c1ccc([N+](=O)[O-])o1 1.67%
COC(=O)c1ccccc1NC(=O)Cn1c(=O)cc(-c2ccccc2)c2c(C)nn(C)c21 -22.9%
CCOC(=O)c1sc2ncn(CC(=O)Nc3cc(C)cc(C)c3)c(=O)c2c1C -12.6%
O=C(NCc1ccccc1F)c1cc2ccccn2n1 54%
Cc1ccc2oc(=O)c3cc(C(=O)NCc4ccc(Cl)cc4)sc3c2c1 -7.95%
COc1ccc(CNC(=O)c2ccc(NC(=O)N3CCCCc4ccccc43)cc2)c(OC)c1 -8.28%
Cc1cccc(-c2nc(C)c(CCNC(=O)C(=O)Nc3c(C)cc(C)cc3C)s2)c1 -9.61%
Cc1cc(SCC(=O)NCc2ccccc2Cl)nc(=O)[nH]1 2.48%
COc1ccc(-c2csc3nc(-c4ccc(F)cc4)oc(=O)c23)cc1OC 0.851%
Cc1ccc(-c2noc(CSc3nnc(C)n3-c3ccc(F)cc3)n2)cc1 -23.5%
Cc1cc(O)c(C(c2ccccc2)N2CCN(c3ccccc3F)CC2)c(=O)n1Cc1ccco1 (centres undefined) -5.4%
CCC(=O)N1CCc2cc(Br)cc(S(=O)(=O)CCC(=O)NCc3ccc(C)cc3)c21 -8.81%
COc1ccc(CNC(=O)C(=O)Nc2ccccc2OC)cc1 -24.8% [at 11.5 µM]
COc1cc(NC(=O)CN2C(=O)C(c3ccc(C)cc3)=NC23CCCCCC3)cc(OC)c1 -26.9%
CC(=O)Nc1c(C)nn(-c2ccccc2)c1N1CCC(C(=O)Nc2ccc(Cl)cc2C)CC1 -5.46%
O=C(c1ccccc1)c1ccc2n1CCC2C(=O)O (centres undefined) 34.8%
COc1ccc(N2CCN(C(=O)CCc3nnc4n(C)c(=O)c5sccc5n34)CC2)cc1 -1.86%
COc1c(N2CCNC(C)C2)c(F)cc2c(=O)c(C(=O)O)cn(C3CC3)c12 (centres undefined)
CCCC(=O)Nc1nc2c(s1)CC(C(C)(C)C)CC2 (centres undefined) 4.69%
COc1ccc(-n2c(=O)c3ccc(C(=O)NCc4ccc(C)cc4)cc3n(Cc3ccc(F)cc3Cl)c2=O)cc1 -8.52%
CC1(C)N=C(c2ccc(F)cc2)C(=O)N1CC(=O)Nc1ccccc1Cl -17.6%
Cc1ccc(Cn2c3ccccc3c3cnn(CC(=O)N4CCCCCC4)c(=O)c32)cc1 -29.4%
COc1ccc(-n2nc3c(c2NC(=O)C(=O)NCc2ccccc2)CSC3)cc1 -25.5%
COC(=O)c1cc2oc(C)cc2n1CC(=O)Nc1ccc(OC)c(OC)c1 -11.4%
CCOc1ccc(-n2c(=O)c3c(C)c(C)sc3n(Cc3c(F)cccc3Cl)c2=O)cc1 -5.23%
COc1ccc(N2C(=O)CS(=O)(=O)C23C(=O)N(Cc2ccccc2)c2ccccc23)cc1 (centres undefined) -28.6%
CCN1CCN(c2cc(C)c3cc(NC(=O)c4cc(OC)c(OC)c(OC)c4)ccc3n2)CC1 13.6%
Clc1cccc(N2CCN(c3nc4ccccc4c4nc(-c5ccccc5)nn34)CC2)c1 -7.77%
Cc1cc(C)cc(NC(=O)Cn2c(=O)n(CCC(C)C)c(=O)c3cccnc32)c1 9.71%
CCc1ccc2oc(C(=O)N(Cc3cccc(Cl)c3)Cc3ccco3)c(C)c2c1 -26.3%
Cn1c(=O)cc(SCC(=O)NCCc2ccc(Cl)cc2)c2cc(Cl)ccc21 -12.4%
COc1cccc(CNC(=O)CCCn2c(=O)c3cccn3c3ccc(F)cc32)c1OC -4.08%
COc1ccc(-c2cc(C(C)=O)c(C)n2CCC(=O)Nc2cccc(C)c2C)cc1 -22%
O=C(CSc1nc2ccccc2c2nc(-c3ccccc3)nn12)Nc1ccc(F)cc1 -14.9%
O=C(Cn1c2ncccc2c(=O)n1-c1ccccc1)Nc1cccc(C(F)(F)F)c1 -38.1%
CCc1nnc(SC(CC)C(=O)NCCOC)c2cc3occc3n12 (centres undefined) -1.65%
CCc1cccc(NC(=O)Cn2c(=O)n(Cc3ccccc3)c(=O)c3c(C)c(C(=O)N(C)C)sc32)c1 -3.93%
CN1CCN(C(=O)c2cnn(-c3ccccc3)c2C2CCN(C(=O)OC(C)(C)C)CC2)CC1 -11.5%
Cc1ccc(C)c(NC(=O)Cn2cc(S(=O)(=O)N3CCCC3)c(S(=O)(=O)N3CCCC3)c2)c1 5.78% [at 11.5 µM]
Cc1cccc(NC(=O)CSc2nc(C)cc(C)c2C(=O)Nc2ccc(Cl)cc2)c1 -27%
COc1ccc(Cl)cc1NC(=O)c1cc(=O)c2cc(C)cc(C)c2o1 8.8% [at 11.5 µM]
CCc1ccc2c(c1)c(=O)c(S(=O)(=O)c1ccccc1)cn2CC(=O)Nc1cc(C)ccc1C -17.8%
COc1cc(NC(=O)CN(C)S(=O)(=O)c2ccc3c(c2)CCCC(=O)N3)cc(OC)c1OC -25.2%
COc1ccc(-c2nc3ccccc3o2)cc1NC(=O)COc1c(C)cc(Cl)cc1Cl 17.1%
Cc1ccc(CCNC(=O)Cn2ncc3c(=O)oc4ccccc4c32)cc1 -18.2%
CCN(CC)CCCC(C)Nc1nc(C)cc(Nc2ccc3nc(C)cc(N)c3c2)n1 (centres undefined) 12.9%
CC(C)(C)OC(=O)N1CCC(c2c(C(=O)N3CCN(c4ccccc4F)CC3)cnn2C(C)(C)C)CC1 -24.8%
CCOC(=O)C1CCN(c2csc3ccc(C)cc3c2=O)CC1 -9.68%
COC(=O)c1cc2sc(C)cc2n1Cc1nc(-c2cccc(Br)c2)oc1C -16.5%
CCOC(=O)c1[nH]c(C)c(CCC(=O)N2CCN(c3cccc(OC)c3)CC2)c1C -19.7%
Cc1ccc(-c2noc(-c3ccccc3NC(=O)c3ccccc3)n2)cc1 39.8%
CCOc1ccc(NC(=O)Cn2ncc3c2-c2cc(C)ccc2OC3)cc1 -22.4%
CCC(=O)N1CCc2cc(Br)cc(S(=O)(=O)CCC(=O)NCc3ccccc3OC)c21 -20.5%
COc1ccc(CCNC(=O)C(=O)Nc2ccccc2F)cc1 14.8%
Cc1ccc(CNC(=O)C(=O)Nc2c3c(nn2-c2ccccc2)CSC3)cc1 -23%
O=C(NCc1ccccc1)c1ccc(CNS(=O)(=O)c2ccc(Br)cc2)cc1 -18%
COc1ccccc1CNS(=O)(=O)c1ccc2c(c1)CC(C)N2C(C)=O (centres undefined) -20.1%
CC1CCN(S(=O)(=O)c2ccc3c(c2)N(CC(=O)NC(C)c2ccccc2)C(=O)CS3)CC1 (centres undefined) -25.8%
Cc1ccc(C)c(N2CCN(S(=O)(=O)c3ccc4[nH]c5c(c4c3)CCCCC5)CC2)c1 -25.9%
CC(C)Cn1cc(NC(=O)N2CCN(c3cccc(Cl)c3)CC2)c2ccccc2c1=O -21.5%
CCc1ccc(NC(=O)N2CCOc3ccc(Cl)cc32)cc1 33%
COc1cc(Cl)c(S(=O)(=O)NCCc2c(C)[nH]c3c(C)cccc23)cc1Cl -17.3%
CCCn1c(=O)c2[nH]c(-c3cnn(Cc4cccc(C(F)(F)F)c4)c3)nc2n(CC)c1=O 4.18%
O=C(O)c1cc(=O)c2ccccc2o1 -1.88%
Cc1cc(C)c(NC(=O)c2cc(S(=O)(=O)N3CCC4(CC3)OCCO4)ccc2F)c(C)c1 -20.1%
COC(=O)c1ccc(C2c3c(-c4ccccc4O)n[nH]c3C(=O)N2Cc2cccnc2)cc1 (centres undefined) -9.16%
CCN(CCCNC(=O)Cn1ncc2c3ccccc3n(C)c2c1=O)Cc1ccccc1 9.86%
